This note sets out measurements from the BET-seq Pho4 binding data (Le et al. 2018).

The other results are listed elsewhere or left out. These are noisy estimates, calculated here from bound and input reads.

For this test, the target named is T1, Pho4 (S. cerevisiae) (UniProt P07270).
T1 sequence: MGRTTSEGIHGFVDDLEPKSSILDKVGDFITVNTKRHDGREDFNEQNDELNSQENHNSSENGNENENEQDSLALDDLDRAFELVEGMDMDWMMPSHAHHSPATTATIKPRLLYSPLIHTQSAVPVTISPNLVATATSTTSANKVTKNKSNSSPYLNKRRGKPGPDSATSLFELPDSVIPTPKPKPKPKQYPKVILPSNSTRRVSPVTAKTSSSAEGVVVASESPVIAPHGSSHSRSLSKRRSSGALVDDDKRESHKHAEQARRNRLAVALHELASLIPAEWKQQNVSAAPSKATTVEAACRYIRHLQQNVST
The experiment in a line: relative binding free energy (BET-seq); higher = weaker binding. Particulars: reference: library average.
For the sequence ATTTTCACGTGGTTAT, the “relative binding free energy” value turned out to be 0.22 kcal/mol. As for TGCAGCACGTGGTGTA, the figure is -0.26 kcal/mol; as for GGGTACACGTGTCTGT, 0.19 kcal/mol. Regarding GCGTTCACGTGTTGGC, the “relative binding free energy” value was 0.37 kcal/mol. To GGGTGCACGTGTATGC belongs -0.05 kcal/mol. With AGGGACACGTGCTGTG, the “relative binding free energy” value is 0.02 kcal/mol.

Regarding TTGGGCACGTGGCCTA, the “relative binding free energy” value was -0.17 kcal/mol.

As to GGGGGCACGTGTATAT, the “relative binding free energy” value is -0.07 kcal/mol.

Take GTTGGCACGTGCTTTC: the “relative binding free energy” value turned out to be 0.09 kcal/mol. To ATCGGCACGTGTTTTT belongs 0.04 kcal/mol; to ATTGGCACGTGGCGAG, -0.22 kcal/mol. To CGATTCACGTGTGGAG belongs 0.25 kcal/mol; to GTCGTCACGTGAGCTG, 0.26 kcal/mol. To GTTTGCACGTGACAAG belongs 0.25 kcal/mol. Regarding AACGGCACGTGTATGT, the “relative binding free energy” value was -0.04 kcal/mol. Consider GGCAGCACGTGGGTTG, for which the “relative binding free energy” value was -0.29 kcal/mol.

Take TATTGCACGTGAATTT: the “relative binding free energy” value came to 0.2 kcal/mol. As for GGTGTCACGTGTAATC, the figure is 0.31 kcal/mol. As to TCGTGCACGTGTTAGA, the “relative binding free energy” value was -0.1 kcal/mol. Consider TAGGTCACGTGTCTAG, for which the “relative binding free energy” value worked out at 0.17 kcal/mol. As for TGGGTCACGTGTACAA, the figure is 0.22 kcal/mol; as for TAGGACACGTGTTTTC, 0.1 kcal/mol; as for TTTAACACGTGGTATT, -0.02 kcal/mol. To GTGAACACGTGTGGCT belongs 0.1 kcal/mol; to AGATACACGTGGGCGG, -0.06 kcal/mol. To GTTTGCACGTGGATCA belongs -0.02 kcal/mol; to AGGTCCACGTGGTTGT, 0.13 kcal/mol. With GTGTCCACGTGAATTG, the “relative binding free energy” value turned out to be 0.29 kcal/mol.

With AAGGGCACGTGGCCGT, the “relative binding free energy” value is -0.24 kcal/mol. As for CAGATCACGTGTGGGT, the figure is 0.18 kcal/mol. ACTCGCACGTGTTGTG: the “relative binding free energy” value is -0.05 kcal/mol. To GGGGCCACGTGGATCG belongs -0.03 kcal/mol; to GGGCGCACGTGTCAGG, 0.05 kcal/mol; to TGTATCACGTGGGGAT, 0.16 kcal/mol. To TGCTTCACGTGGGGGC belongs 0.15 kcal/mol; to TATAACACGTGGGTGG, -0.03 kcal/mol; to TAGTTCACGTGAGGGC, 0.42 kcal/mol. As to GGCAGCACGTGGTGTG, the “relative binding free energy” value was found to be 0 kcal/mol. As for ATAATCACGTGGTTAT, the figure is -0.11 kcal/mol; as for ACGTGCACGTGTATTG, -0.18 kcal/mol; as for TGTAGCACGTGATAGA, -0.08 kcal/mol. To TTAGGCACGTGGATGC belongs -0.3 kcal/mol; to GTTATCACGTGGCGGT, 0.11 kcal/mol. In the case of GTGTGCACGTGGTATG, the “relative binding free energy” value is -0.07 kcal/mol. To ATCAGCACGTGTATTA belongs 0.02 kcal/mol; to TGAGCCACGTGGGGGC, -0.23 kcal/mol. To GGGTCCACGTGGGGTC belongs -0.07 kcal/mol; to TGAAGCACGTGTAGTA, -0.04 kcal/mol; to GTTCTCACGTGGCGTG, 0.15 kcal/mol. As for ATGGGCACGTGGTTAC, the figure is -0.14 kcal/mol; as for GGTAGCACGTGGGTTG, -0.13 kcal/mol. For TAGTGCACGTGGTGGA, the “relative binding free energy” value was -0.02 kcal/mol.

As for GAGCTCACGTGAGGGG, the “relative binding free energy” value was 0.3 kcal/mol. To TCTGTCACGTGTTGGG belongs 0.22 kcal/mol. As for TGGAGCACGTGAGGGC, the figure is 0.14 kcal/mol. To GGTATCACGTGATGTC belongs 0.24 kcal/mol. In the case of AAGGGCACGTGTGAGT, the “relative binding free energy” value is -0.09 kcal/mol.

For TTTCTCACGTGGGTGG, the “relative binding free energy” value was 0.05 kcal/mol. As for GTATTCACGTGAAGGT, the figure is 0.41 kcal/mol; as for CATGTCACGTGCTTGG, 0.04 kcal/mol. As for AGGTTCACGTGGAGAA, the figure is 0.3 kcal/mol; as for ATTGGCACGTGAAGGT, 0.12 kcal/mol; as for GCTTGCACGTGCGGTG, 0.07 kcal/mol.

As to TGGGGCACGTGTACGA, the “relative binding free energy” value is -0.07 kcal/mol.

Consider TAGTCCACGTGGGTAA, for which the “relative binding free energy” value was -0.03 kcal/mol. To TTGGTCACGTGAGGCG belongs 0.23 kcal/mol; to TTTCCCACGTGTGTTG, -0.11 kcal/mol; to CTTTGCACGTGGTGAA, -0.1 kcal/mol. To GGTATCACGTGTTGTA belongs 0.08 kcal/mol. For TGAGACACGTGTTGCG, the “relative binding free energy” value came to 0.11 kcal/mol. To AGGGTCACGTGAAGTT belongs 0.22 kcal/mol; to ATTCTCACGTGGGTCA, 0.2 kcal/mol. To GTTAGCACGTGAGGAG belongs 0.23 kcal/mol; to AAATGCACGTGGCGGA, -0.01 kcal/mol. As for CGTTGCACGTGGGCGG, the figure is -0.2 kcal/mol. Regarding CAGGGCACGTGAAGTT, the “relative binding free energy” value was found to be 0.17 kcal/mol.

GTGTTCACGTGGGATA: the “relative binding free energy” value came out at 0.25 kcal/mol. To GTTTTCACGTGGTTAA belongs 0.31 kcal/mol.

With CGTAGCACGTGTTGTA, the “relative binding free energy” value was -0.07 kcal/mol.

Regarding AGTCGCACGTGTAAGT, the “relative binding free energy” value turned out to be 0.03 kcal/mol.

Consider GGCGTCACGTGAGTCG, for which the “relative binding free energy” value turned out to be 0.2 kcal/mol. To AATAGCACGTGCAGTG belongs -0.09 kcal/mol; to AGCGGCACGTGCGGAG, -0.15 kcal/mol. To TTCAGCACGTGGTGTG belongs -0.17 kcal/mol. Take AGGGACACGTGAGCGT: the “relative binding free energy” value was 0.11 kcal/mol. As for CGTTGCACGTGTAAGA, the “relative binding free energy” value worked out at 0.19 kcal/mol. To GCTGTCACGTGATGGG belongs 0.26 kcal/mol; to AGGGCCACGTGTGTTA, -0.06 kcal/mol; to TTTGACACGTGGATAG, 0.07 kcal/mol.

Consider GGGATCACGTGTTACG, for which the “relative binding free energy” value turned out to be 0.2 kcal/mol.

For AGCTGCACGTGGTAAG, the “relative binding free energy” value stood at 0.05 kcal/mol. To AAATTCACGTGGTTAG belongs 0.09 kcal/mol. To TGATTCACGTGGAGCG belongs 0.45 kcal/mol. To TTAAGCACGTGGTGTT belongs -0.13 kcal/mol. On to TGGAGCACGTGTAGCG, for which the “relative binding free energy” value is -0.15 kcal/mol.

In the case of AATTTCACGTGTGCTT, the “relative binding free energy” value worked out at 0.21 kcal/mol.

Regarding AAATGCACGTGGGGCT, the “relative binding free energy” value is -0.13 kcal/mol. As for GGCGGCACGTGTTGGG, the figure is 0.01 kcal/mol; as for GGAGCCACGTGATGGG, 0.1 kcal/mol. To ACTCGCACGTGTGTGG belongs -0.06 kcal/mol. To ATTTGCACGTGGTTAT belongs -0.08 kcal/mol. As for GGTGCCACGTGGTGTT, the “relative binding free energy” value was -0.14 kcal/mol. As for TGTGGCACGTGGCCGT, the figure is -0.35 kcal/mol; as for GGTCGCACGTGATGAT, 0.11 kcal/mol. Take TTGTGCACGTGGACTA: the “relative binding free energy” value is -0.07 kcal/mol. To GCGTACACGTGGGTCT belongs -0.06 kcal/mol.

Take TCTGTCACGTGCGGGT: the “relative binding free energy” value was found to be 0.08 kcal/mol. In the case of AGTGCCACGTGCTTGG, the “relative binding free energy” value was -0.17 kcal/mol. To CGGCTCACGTGAGTGT belongs 0.41 kcal/mol; to TTTTGCACGTGAACTG, 0.2 kcal/mol; to AGTCGCACGTGTGGGT, -0.01 kcal/mol.

In the case of GTTGTCACGTGGCTGT, the “relative binding free energy” value amounted to 0.06 kcal/mol.

On to TAGGGCACGTGTGCGT, for which the “relative binding free energy” value is -0.01 kcal/mol.

Regarding CGCTGCACGTGTGGTT, the “relative binding free energy” value came to 0.03 kcal/mol. TTATTCACGTGGGAGG: the “relative binding free energy” value was 0.14 kcal/mol.
